Source: the supplement of paper PMC9151546
Repeats are few or missing, and single values can be far off.

Key:
CHO-K1 [1] = assay: hypodiploid nuclei frequency (% of nucleated events); higher = more hypodiploid events (aneugenic)
Description: (§1)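 Flow-cytometric in vitro micronucleus assay (Litron MicroFlow) in CHO-K1 cells in 96-well plates, 19 concentrations (4.5-200 µM, n=1 per concentration). Without S9, cells were exposed for 24 h and sampled at 48 h. With Aroclor 1254-induced rat liver S9, cells were exposed for 3-4 h and sampled at 27-28 h. Read-outs are %MN and %hypodiploid nuclei relative to nucleated events, and relative survival as the nuclei-to-bead ratio versus the 1% DMSO vehicle control (x100).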

CHO-K1 [2] = assay: micronucleus frequency (% of nucleated events); higher = more micronuclei (genotoxic)
CHO-K1 [3] = assay: relative survival (nuclei to bead ratio vs DMSO control) (% of vehicle control); higher = more surviving cells
Description: as §1
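Wherever hypodiploid nuclei frequency (% of nucleated events) is given: hypodiploid nuclei gated on a flow cytometer with 488 nm excitation after SYTOX Green staining, cultures at 37 °C, positive controls vinblastine without S9 and cyclophosphamide with S9.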
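Wherever micronucleus frequency (% of nucleated events) is given: cells lysed with nuclei stained by SYTOX Green, then micronucleus-gated events counted against nucleated events by flow cytometry with 488 nm excitation.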
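Wherever relative survival (nuclei to bead ratio vs DMSO control) is given: Lysed-cell nuclei stained with SYTOX Green and counted against counting beads by flow cytometry at 488 nm excitation, with vinblastine (no S9) and cyclophosphamide (plus S9) as positive controls.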

CC/C(=C(/CC)c1ccc(O)cc1)c1ccc(O)cc1 [Diethylstilbestrol]
Conditions | hypodiploid nuclei frequency, CHO-K1 [1] [%] | micronucleus frequency, CHO-K1 [2] [%] | relative survival, CHO-K1 [3]
concentration: 4.5 (µM), S9 metabolic activation: with S9, exposure time: 3-4 hours | 0.16 | 1.32 | 84.3
concentration: 4.5 (µM), S9 metabolic activation: without S9, exposure time: 24 hours | 1.06 | 1.6 | 81.1
concentration: 5.63 (µM), S9 metabolic activation: with S9, exposure time: 3-4 hours | 0.1 | 1.06 | 89.1
concentration: 5.63 (µM), S9 metabolic activation: without S9, exposure time: 24 hours | 1.18 | 1.54 | 106
concentration: 7.04 (µM), S9 metabolic activation: with S9, exposure time: 3-4 hours | 0.22 | 1.02 | 66.3
concentration: 7.04 (µM), S9 metabolic activation: without S9, exposure time: 24 hours | 1.92 | 1.8 | 91.9
concentration: 8.8 (µM), S9 metabolic activation: with S9, exposure time: 3-4 hours | 0.26 | 1.36 | 78.1
concentration: 8.8 (µM), S9 metabolic activation: without S9, exposure time: 24 hours | 3.88 | 2.28 | 101
concentration: 11 (µM), S9 metabolic activation: with S9, exposure time: 3-4 hours | 0.2 | 1.3 | 90.6
concentration: 11 (µM), S9 metabolic activation: without S9, exposure time: 24 hours | 10.1 | 4.76 | 86.4
concentration: 13.7 (µM), S9 metabolic activation: with S9, exposure time: 3-4 hours | 0.16 | 1.52 | 82.6
concentration: 13.7 (µM), S9 metabolic activation: without S9, exposure time: 24 hours | 21.5 | 9.72 | 88.7
concentration: 17.2 (µM), S9 metabolic activation: with S9, exposure time: 3-4 hours | 0.2 | 1 | 82.2
concentration: 17.2 (µM), S9 metabolic activation: without S9, exposure time: 24 hours | 24.4 | 13.5 | 52.5
concentration: 21.5 (µM), S9 metabolic activation: with S9, exposure time: 3-4 hours | 0.38 | 1.48 | 115
concentration: 21.5 (µM), S9 metabolic activation: without S9, exposure time: 24 hours | – | – | 23.2
concentration: 26.8 (µM), S9 metabolic activation: with S9, exposure time: 3-4 hours | 0.16 | 0.94 | 70.7
concentration: 26.8 (µM), S9 metabolic activation: without S9, exposure time: 24 hours | – | – | 17.9
concentration: 33.6 (µM), S9 metabolic activation: with S9, exposure time: 3-4 hours | 0.18 | 1.42 | 60.5
concentration: 33.6 (µM), S9 metabolic activation: without S9, exposure time: 24 hours | – | – | 17.2
concentration: 41.9 (µM), S9 metabolic activation: with S9, exposure time: 3-4 hours | 0.28 | 1.16 | 80.8
concentration: 41.9 (µM), S9 metabolic activation: without S9, exposure time: 24 hours | – | – | 15.1
concentration: 52.4 (µM), S9 metabolic activation: with S9, exposure time: 3-4 hours | 0.18 | 1.12 | 54.1
concentration: 52.4 (µM), S9 metabolic activation: without S9, exposure time: 24 hours | – | – | 25.8
concentration: 65.5 (µM), S9 metabolic activation: with S9, exposure time: 3-4 hours | – | – | 35.6
concentration: 65.5 (µM), S9 metabolic activation: without S9, exposure time: 24 hours | – | – | 30.7
concentration: 81.9 (µM), S9 metabolic activation: with S9, exposure time: 3-4 hours | – | – | 12.1
concentration: 81.9 (µM), S9 metabolic activation: without S9, exposure time: 24 hours | – | – | 30.9
concentration: 102 (µM), S9 metabolic activation: without S9, exposure time: 24 hours | – | – | 38.2
concentration: 128 (µM), S9 metabolic activation: without S9, exposure time: 24 hours | – | – | 28.2
concentration: 160 (µM), S9 metabolic activation: without S9, exposure time: 24 hours | – | – | 0.13
concentration: 200 (µM), S9 metabolic activation: with S9, exposure time: 3-4 hours | – | – | 0.06
concentration: 200 (µM), S9 metabolic activation: without S9, exposure time: 24 hours | – | – | 0.12

CCCCCCOC(=O)c1ccccc1C(=O)OCCCCCC [Dihexyl phthalate]
Conditions | hypodiploid nuclei frequency, CHO-K1 [1] [%] | micronucleus frequency, CHO-K1 [2] [%] | relative survival, CHO-K1 [3]
concentration: 4.5 (µM), S9 metabolic activation: with S9, exposure time: 3-4 hours | 0.28 | 1.16 | 114
concentration: 4.5 (µM), S9 metabolic activation: without S9, exposure time: 24 hours | 0.58 | 1.6 | 78.3
concentration: 5.63 (µM), S9 metabolic activation: with S9, exposure time: 3-4 hours | 0.22 | 1.1 | 126
concentration: 5.63 (µM), S9 metabolic activation: without S9, exposure time: 24 hours | 0.58 | 1.26 | 75
concentration: 7.04 (µM), S9 metabolic activation: with S9, exposure time: 3-4 hours | 0.12 | 0.96 | 121
concentration: 7.04 (µM), S9 metabolic activation: without S9, exposure time: 24 hours | 0.52 | 1.4 | 78.3
concentration: 8.8 (µM), S9 metabolic activation: with S9, exposure time: 3-4 hours | 0.38 | 1.24 | 124
concentration: 8.8 (µM), S9 metabolic activation: without S9, exposure time: 24 hours | 0.6 | 1.22 | 94.3
concentration: 11 (µM), S9 metabolic activation: with S9, exposure time: 3-4 hours | 0.2 | 0.9 | 127
concentration: 11 (µM), S9 metabolic activation: without S9, exposure time: 24 hours | 0.58 | 1.32 | 90.2
concentration: 13.7 (µM), S9 metabolic activation: with S9, exposure time: 3-4 hours | 0.4 | 0.9 | 126
concentration: 13.7 (µM), S9 metabolic activation: without S9, exposure time: 24 hours | 0.52 | 1.02 | 97.9
concentration: 17.2 (µM), S9 metabolic activation: with S9, exposure time: 3-4 hours | 0.36 | 1.26 | 119
concentration: 17.2 (µM), S9 metabolic activation: without S9, exposure time: 24 hours | 0.38 | 1.26 | 92.4
concentration: 21.5 (µM), S9 metabolic activation: with S9, exposure time: 3-4 hours | 0.18 | 1.06 | 108
concentration: 21.5 (µM), S9 metabolic activation: without S9, exposure time: 24 hours | 0.68 | 1.78 | 82.8
concentration: 26.8 (µM), S9 metabolic activation: with S9, exposure time: 3-4 hours | 0.28 | 1.08 | 141
concentration: 26.8 (µM), S9 metabolic activation: without S9, exposure time: 24 hours | 0.74 | 2.38 | 53.5
concentration: 33.6 (µM), S9 metabolic activation: with S9, exposure time: 3-4 hours | 0.1 | 1 | 117
concentration: 33.6 (µM), S9 metabolic activation: without S9, exposure time: 24 hours | 0.74 | 2.16 | 69
concentration: 41.9 (µM), S9 metabolic activation: with S9, exposure time: 3-4 hours | 0.32 | 1.2 | 115
concentration: 41.9 (µM), S9 metabolic activation: without S9, exposure time: 24 hours | 0.76 | 2.08 | 45.6
concentration: 52.4 (µM), S9 metabolic activation: with S9, exposure time: 3-4 hours | 0.34 | 1.32 | 92.6
concentration: 52.4 (µM), S9 metabolic activation: without S9, exposure time: 24 hours | 0.48 | 2.16 | 44.7
concentration: 65.5 (µM), S9 metabolic activation: with S9, exposure time: 3-4 hours | 0.28 | 1.24 | 132
concentration: 65.5 (µM), S9 metabolic activation: without S9, exposure time: 24 hours | – | – | 38
concentration: 81.9 (µM), S9 metabolic activation: with S9, exposure time: 3-4 hours | 0.12 | 1.24 | 124
concentration: 81.9 (µM), S9 metabolic activation: without S9, exposure time: 24 hours | 0.54 | 2.2 | 54.5
concentration: 102 (µM), S9 metabolic activation: with S9, exposure time: 3-4 hours | 0.32 | 1.38 | 124
concentration: 102 (µM), S9 metabolic activation: without S9, exposure time: 24 hours | – | – | 38.8
concentration: 128 (µM), S9 metabolic activation: with S9, exposure time: 3-4 hours | 0.28 | 1.76 | 114
concentration: 128 (µM), S9 metabolic activation: without S9, exposure time: 24 hours | 0.68 | 2.44 | 51.8
concentration: 160 (µM), S9 metabolic activation: with S9, exposure time: 3-4 hours | 0.36 | 1.22 | 109
concentration: 160 (µM), S9 metabolic activation: without S9, exposure time: 24 hours | – | – | 37.4
concentration: 200 (µM), S9 metabolic activation: with S9, exposure time: 3-4 hours | 0.22 | 1.4 | 111
concentration: 200 (µM), S9 metabolic activation: without S9, exposure time: 24 hours | 0.6 | 1.8 | 43.6

CC(=O)OC1CC(C)OC(C)O1 (centres undefined) [Dimethoxane]
Conditions | hypodiploid nuclei frequency, CHO-K1 [1] [%] | micronucleus frequency, CHO-K1 [2] [%] | relative survival, CHO-K1 [3]
concentration: 4.5 (µM), S9 metabolic activation: with S9, exposure time: 3-4 hours | 0.3 | 1.76 | 85.9
concentration: 4.5 (µM), S9 metabolic activation: without S9, exposure time: 24 hours | 1.6 | 1.36 | 111
concentration: 5.63 (µM), S9 metabolic activation: with S9, exposure time: 3-4 hours | 0.26 | 1.92 | 76.5
concentration: 5.63 (µM), S9 metabolic activation: without S9, exposure time: 24 hours | 1.3 | 1.56 | 105
concentration: 7.04 (µM), S9 metabolic activation: with S9, exposure time: 3-4 hours | 0.34 | 2.1 | 96.7
concentration: 7.04 (µM), S9 metabolic activation: without S9, exposure time: 24 hours | 1.1 | 1.64 | 151
concentration: 8.8 (µM), S9 metabolic activation: with S9, exposure time: 3-4 hours | 0.4 | 1.82 | 93.7
concentration: 8.8 (µM), S9 metabolic activation: without S9, exposure time: 24 hours | 0.96 | 1.28 | 145
concentration: 11 (µM), S9 metabolic activation: with S9, exposure time: 3-4 hours | 0.36 | 1.9 | 103
concentration: 11 (µM), S9 metabolic activation: without S9, exposure time: 24 hours | 1.22 | 1.72 | 117
concentration: 13.7 (µM), S9 metabolic activation: with S9, exposure time: 3-4 hours | 0.38 | 2.18 | 82.2
concentration: 13.7 (µM), S9 metabolic activation: without S9, exposure time: 24 hours | 1.08 | 1.6 | 156
concentration: 17.2 (µM), S9 metabolic activation: with S9, exposure time: 3-4 hours | 0.32 | 2.08 | 91.8
concentration: 17.2 (µM), S9 metabolic activation: without S9, exposure time: 24 hours | 1.2 | 1.6 | 112
concentration: 21.5 (µM), S9 metabolic activation: with S9, exposure time: 3-4 hours | 0.2 | 1.72 | 69.4
concentration: 21.5 (µM), S9 metabolic activation: without S9, exposure time: 24 hours | 1.12 | 1.8 | 112
concentration: 26.8 (µM), S9 metabolic activation: with S9, exposure time: 3-4 hours | 0.34 | 1.82 | 75.8
concentration: 26.8 (µM), S9 metabolic activation: without S9, exposure time: 24 hours | 1.52 | 2.52 | 96.8
concentration: 33.6 (µM), S9 metabolic activation: with S9, exposure time: 3-4 hours | 0.34 | 1.76 | 70
concentration: 33.6 (µM), S9 metabolic activation: without S9, exposure time: 24 hours | 1.74 | 2.02 | 80.6
concentration: 41.9 (µM), S9 metabolic activation: with S9, exposure time: 3-4 hours | 0.46 | 2.12 | 70.2
concentration: 41.9 (µM), S9 metabolic activation: without S9, exposure time: 24 hours | 1.4 | 2.3 | 87.1
concentration: 52.4 (µM), S9 metabolic activation: with S9, exposure time: 3-4 hours | 0.88 | 2.21 | 43.1
concentration: 52.4 (µM), S9 metabolic activation: without S9, exposure time: 24 hours | 1.84 | 2.42 | 83.1
concentration: 65.5 (µM), S9 metabolic activation: with S9, exposure time: 3-4 hours | 0.38 | 2.08 | 73.7
concentration: 65.5 (µM), S9 metabolic activation: without S9, exposure time: 24 hours | 1.88 | 2.24 | 98.2
concentration: 81.9 (µM), S9 metabolic activation: with S9, exposure time: 3-4 hours | 0.5 | 2.62 | 55.5
concentration: 81.9 (µM), S9 metabolic activation: without S9, exposure time: 24 hours | 1.68 | 1.84 | 83.6
concentration: 102 (µM), S9 metabolic activation: with S9, exposure time: 3-4 hours | 0.62 | 2.44 | 58.8
concentration: 102 (µM), S9 metabolic activation: without S9, exposure time: 24 hours | 2 | 2.68 | 64.4
concentration: 128 (µM), S9 metabolic activation: with S9, exposure time: 3-4 hours | 0.37 | 3.31 | 49.8
concentration: 128 (µM), S9 metabolic activation: without S9, exposure time: 24 hours | 1.88 | 3.24 | 61.6
concentration: 160 (µM), S9 metabolic activation: with S9, exposure time: 3-4 hours | 0.62 | 4.39 | 43.8
concentration: 160 (µM), S9 metabolic activation: without S9, exposure time: 24 hours | 1.04 | 3.96 | 46.5
concentration: 200 (µM), S9 metabolic activation: with S9, exposure time: 3-4 hours | – | – | 28.3
concentration: 200 (µM), S9 metabolic activation: without S9, exposure time: 24 hours | 0.88 | 3.86 | 43.6
